Sequences and labels used below:
B1: GFP-tagged Sin1 (TORC2 regulatory subunit) (protein, UniProt Q9P7Y9 1-665)
chain: MELTREKVLLLTFLRMQYSHILPDSIENRVISTEAPEWELDKSLQDLLIHDYDYSKTSFSSSPPIVANDTVSNVRKPSDTKQVNGAGGQVNHSRAEDSDYATSDLSESSDVGDDDNSCIFSFSKVPMQKDVASIKEEERLDPKISTLNNIDAIANLKLTNMVESSQAVNLTSSKQSSINQQSSVSTDYDDLRSISEESFHLSQGEIPLTFPMNSSLTDTEADAVVAVDALFPGKQRGTHNTVNKARSVSNAKAPTSALRALLEHKENSSQNGPLAENFATFSGHAESNALRLNIYFPSSESPSKPLFVELRKNVLVSEAIGYILLQYVNQQLVPPIEDEAQNPNYWNLRIVEDDGELDEDFPALDRVGPLSKFGFDAFALVKATPAQIKENQAAYPFKSKHPTSIPEANNKTHIRHTSSTSSQSQKQAQDVKDTLNTSHVVQVRLPPYGDNARFCNIEISKTTRLAMVLNQVCWMKQLERFKYTLRVAGSDTVLPLDKTFSSLDGNPTLELVKKKVRDKKGSTQQLPTSSPQNSVYGSIKKDAQSSTYNATDIMSSNTYQEFLVWKRQPVSFMGRHERLLAIDGEYVHIMPSESKNIFETPKTSSIHAGSIILCKQSKKSPCNFKMIVSKNRETKRYDFEVLSALEAAIIVSRIRALMNTVKKIN
B2: GFP-tagged Ste20 (TORC2 regulatory subunit, Rictor homologue) (protein, UniProt Q09743 1-1309)
chain: MKPVRRGQTDTALDISSHAKTNGDFIKKMNTTDSKRLKLLEDLKGKLEVECKIRDGAETLLQVFDTNFKKETKERKEMLKKKCTDELESSKKKIEELVSSIESFQGENGEAKTGSTSLTRSASATVSRKSSLQEKYSTRFSYKAGCSDSCSVTVSGTGELIGPTRNAHSNLTPTVIQRIDFENVNEKNNSSSEDTQPNGKRPSSLQSNFSQFPLNPWLDNIYKACLEGSMKDVIDSSNNLCEYLHEHSDPAYAKNFSLITPTILSMLELNVSEVTASVYRLLRHLFLDATAFSCCQMLNLPWILSKSLLSGTDAYQIEREQAFRLIRTLYFLSSTEGHEDYLSGITRTIISICEHVSDVSRGIAVETLIELMIIRPKILFKANGLRVLMISLIDGSISENLAASAALALVYLLDDPESACYVNLPYDIGILLSPFTSSSSRDTFNSSEEQSEQAAKAMKSSAKVASVLLNSWSGLLALSTNDFQALRSIVDTLRVPSFAPRSDVIDLFFLIFQVEYSSWSESFLAGKRLTVVKNQAVSNDDNINMVNIPDGSNKKYMSLRQHFTAVLLFIFLELGLVESIVCMIRASDDPSASRKATYLLGEVLRLSDELLPIHLGAKIQSLPSLFNMASQFTAEDRFVATSVLQSIESLNRVKFHSATQPFSQTTSLLFKEQKTDGSFRGQRQVEHVKLKMGMQIDDSHFRSMLAETNVLATKNYQKWRWDTLVQIMEGPLLSPKRIDETLRTTKFMRRLLAFYKPFSNRFSSIQNTKPNQKFIKVGCLVFRTLLANPEGVKYLSESKVIKQIAESLSQIDGYSEQVSEPIFSNSRLQKTLTHGYFPMLKVLSSQKEGHAIMERWRIFTTLYHLTELRNRDDLIIIFLTNLDYRLEGHTRIIFSKALNTGQQAVRLTATKHLAALINSESANDNLNHWAISLLIFQLYDPCLEVCKTAVKVLNEVCARNENLLAQVVQLQPSLAHLGEIGSPLLLRFLATTVGFHYLSEINFIEHELDNWYHHRNIDYVDLLEQNFFLSFVSNLKIIDKKNNEPDENILPLHFYGELVKSPQGCEVLESSGHFESFMGTLVEFYDKPLGNEAIRQLKSALWAIGNIGKTDQGITFLINHDTIPLIVKYAENSLIPTVRGTAYFVLGLISRTSKGVEILESLHWYSLMSLMGTSQGICIPRHAGQVLSTPRRNVEFVNERVPTPEFSSLLSSLTNSEREVIRLVSNLSNHVLTNESARQLTKIRSKNAKVFSSKRLVKACMTILGKFHYRVQIQQFVFELFPYSVLLSSSTSQDLNESPSRPNNLSISA
B3: GFP-tagged Mip1 (TORC1 regulatory subunit, Raptor homologue) (protein, UniProt P87141 1-1313)
chain: MNDRISEVSGSSRARRSVLSYGTTETGSDRYTENSNIATENGVDTASSMIDGIQSGFPQPRHGFEEEYNNAEYINMLEQVFYMYYTDKRHRGVISKKNAEPTETIHDWRMRERLKTVSAALLVCLNIGVDPPDVIKPNPAAKYECWIDPFSLPASKALEAIGKNLQQQYETLSMRTRYRHYLDPAIEEVKKLCIGQRRNAKEERILFHYNGHGVPMPTASGEIWVFNKNYTQYIPVSLYDLQSWLGAPCIYVYDCSAAGNIIVNFNRFAEQRDKEALRIAKQNPNVLAMPSHTSCIQLAACGPKETLPMNPDLPADLFTSCLTSPIEISVRWYVLQNPFPNKLNLNMLLKIPGRLQDRRTPLGELNWIFTAITDTIAWNVFPKHLFRRLFRQDLMVAALFRNFLLAERIMLVHSCHPQSSPELPPTHDHPMWNSWDLAIDNCLSQLPDMLDAESKGIAYEYKHSTFFSEQLTAFEVWLSQGLISRKPPDQLPLVLQVLLSQVHRLRALILLSKFLDLGVWAVDLALSIGIFPYVLKLLQSPAIELKPVLVFIWARILAVDDSCQADLLKDNGYGYFVQILNPNSSIFPSSNISEHRAMCAFILSVFCRGFPQGQLACLNPQVLSHCLSHLNSPDSLLRQWACLCISQLWENYSEAKWSGTRDNAHVKLAEIIVDSVPEVRASVLTAFTTFLGFPEKTEEVVAVETYIAIAALAALSDASPLVRHELVIFLSHFVVNYKKQLMVVAYESSLADILEKKNHNSISASTIYETVWQAVLVLAADPSIEISLAAEAIINYVYQSMLNSELRESFLAFLLQHLPALHKASLSKDTDTNSVTSDPKPHPFVPSVSENKILNRSFSLTRSLKGLALSLAGSDRASELLSLNGENKPAESNLNHLTSAKVPGPPAFNELEYQSELDMPLTSYLFDWSRKYFTEPQMRPNEDDEPGSICYNQRLWRRNRNEKLIYRTRPLAEYSTNGRWNQQLMTFNNTIAPRKLMFHQFEDQLITLGDKDIIQVWDWRRNRCLNSFKTSASATTNVTDMQLLNEDDVALLMTGSSDGTIKLYRDYENEKVELVTSWNSLSDLVFGDRNASLLMSWQQNCGHLLVAGDVRVIRIWDASKEICYANLPVRSSNSITSLTSDLVGCNIIVAGFSDGVLRVYDKRLPARDSLTDVWKEHSSEIVNVEMQSSGMRELISASSDGEVKLWDIRMNHSLQTFSTDNSGLTSLTVHSHAPVYATGSSNQSIKIWDTLGQNINTFRENPRFLNQPKPSSLMCLKFHPHHLLLACGDNTDSRVNLYSCTKNEIHTDSPNEF
B4: GFP-tagged Bit61 (TORC2 regulatory subunit) (protein, UniProt O74547 1-422)
chain: MVGRGSFSSTSSASSINWIPKNTKTSIESVSNTISLSENGQNQDLETVTTKESNVGDSDTTENIKSPFNGQWPFSRRSSQSSSHPVFEETHWSKHSKRPGKLNVLTPTSPSNVNAEVQSISTKTQLSLLNLSPHKHKKPKDGLDLSALQKTLNGSRNFLRGRRDAGGIFGASIPQSLVTNQIINGFGAASLAFAKLGKVRSPLEGRFNLVPISADETWLIVESEVCSLYSGEALHYSLEDLNGILILHLQALIRDTKMNEFVGHLETLFRKATKCLSDSLSPVPEELFLNRIIETWLFFFSSVLPYVQGVFLPIKTKLFDEQEKTQLPYEVNEFCSTNREKLNVHRLALMTFRDYMVLPIANRIQICIGRAESAENALDNAGEVFARLFQILSLLASVRTNDSKEQEITNLATKVRCLLIAS
B5: GFP-tagged Tco89 (TORC1 regulatory subunit) (protein, UniProt O74428 1-451)
chain: MERPSLSRRTSSSTVSTDGEGVYSRSTKERKRNFIVNSRLKRGGGHVRVNRSGRLGSVTMRPSALTRAHSQNPNSSLVNNSSAVSHLTKQRSLNDLHELNGPKHVAKNGLIPLTQRKPNCVWDDAPVDNDSTAGNLDSDSALPTPSVTTNEAADSSRASSPVTRVVAVHDNKKKIINSNISNAPPFNNTDVQASARPPAAGQDDSAADASTTKSSPVHNEVMAEPLPHSNNREVTQATNQPKWQIHSGSDIASEPPTLSRGNSLSLLANRKVPSTNVKKSQAELYDLGSSTSRTQQKLLIQRASSKFDIVEDDMDTNPSKRFSNPHTKHIMDLVRTQYRNVLRTRELIPEFLEKIRSSYSNNQNFDSQNAFNTSAAGTAGTREETISNGQNGIVASAETSKKDDGVQSASLNASMSARSHARQRSIHVPKTRKDTDYESIHQKLLQLWSQG

Protein sequences, listed by entry. Tags and fused reporters are not part of them.
UniProt O14356: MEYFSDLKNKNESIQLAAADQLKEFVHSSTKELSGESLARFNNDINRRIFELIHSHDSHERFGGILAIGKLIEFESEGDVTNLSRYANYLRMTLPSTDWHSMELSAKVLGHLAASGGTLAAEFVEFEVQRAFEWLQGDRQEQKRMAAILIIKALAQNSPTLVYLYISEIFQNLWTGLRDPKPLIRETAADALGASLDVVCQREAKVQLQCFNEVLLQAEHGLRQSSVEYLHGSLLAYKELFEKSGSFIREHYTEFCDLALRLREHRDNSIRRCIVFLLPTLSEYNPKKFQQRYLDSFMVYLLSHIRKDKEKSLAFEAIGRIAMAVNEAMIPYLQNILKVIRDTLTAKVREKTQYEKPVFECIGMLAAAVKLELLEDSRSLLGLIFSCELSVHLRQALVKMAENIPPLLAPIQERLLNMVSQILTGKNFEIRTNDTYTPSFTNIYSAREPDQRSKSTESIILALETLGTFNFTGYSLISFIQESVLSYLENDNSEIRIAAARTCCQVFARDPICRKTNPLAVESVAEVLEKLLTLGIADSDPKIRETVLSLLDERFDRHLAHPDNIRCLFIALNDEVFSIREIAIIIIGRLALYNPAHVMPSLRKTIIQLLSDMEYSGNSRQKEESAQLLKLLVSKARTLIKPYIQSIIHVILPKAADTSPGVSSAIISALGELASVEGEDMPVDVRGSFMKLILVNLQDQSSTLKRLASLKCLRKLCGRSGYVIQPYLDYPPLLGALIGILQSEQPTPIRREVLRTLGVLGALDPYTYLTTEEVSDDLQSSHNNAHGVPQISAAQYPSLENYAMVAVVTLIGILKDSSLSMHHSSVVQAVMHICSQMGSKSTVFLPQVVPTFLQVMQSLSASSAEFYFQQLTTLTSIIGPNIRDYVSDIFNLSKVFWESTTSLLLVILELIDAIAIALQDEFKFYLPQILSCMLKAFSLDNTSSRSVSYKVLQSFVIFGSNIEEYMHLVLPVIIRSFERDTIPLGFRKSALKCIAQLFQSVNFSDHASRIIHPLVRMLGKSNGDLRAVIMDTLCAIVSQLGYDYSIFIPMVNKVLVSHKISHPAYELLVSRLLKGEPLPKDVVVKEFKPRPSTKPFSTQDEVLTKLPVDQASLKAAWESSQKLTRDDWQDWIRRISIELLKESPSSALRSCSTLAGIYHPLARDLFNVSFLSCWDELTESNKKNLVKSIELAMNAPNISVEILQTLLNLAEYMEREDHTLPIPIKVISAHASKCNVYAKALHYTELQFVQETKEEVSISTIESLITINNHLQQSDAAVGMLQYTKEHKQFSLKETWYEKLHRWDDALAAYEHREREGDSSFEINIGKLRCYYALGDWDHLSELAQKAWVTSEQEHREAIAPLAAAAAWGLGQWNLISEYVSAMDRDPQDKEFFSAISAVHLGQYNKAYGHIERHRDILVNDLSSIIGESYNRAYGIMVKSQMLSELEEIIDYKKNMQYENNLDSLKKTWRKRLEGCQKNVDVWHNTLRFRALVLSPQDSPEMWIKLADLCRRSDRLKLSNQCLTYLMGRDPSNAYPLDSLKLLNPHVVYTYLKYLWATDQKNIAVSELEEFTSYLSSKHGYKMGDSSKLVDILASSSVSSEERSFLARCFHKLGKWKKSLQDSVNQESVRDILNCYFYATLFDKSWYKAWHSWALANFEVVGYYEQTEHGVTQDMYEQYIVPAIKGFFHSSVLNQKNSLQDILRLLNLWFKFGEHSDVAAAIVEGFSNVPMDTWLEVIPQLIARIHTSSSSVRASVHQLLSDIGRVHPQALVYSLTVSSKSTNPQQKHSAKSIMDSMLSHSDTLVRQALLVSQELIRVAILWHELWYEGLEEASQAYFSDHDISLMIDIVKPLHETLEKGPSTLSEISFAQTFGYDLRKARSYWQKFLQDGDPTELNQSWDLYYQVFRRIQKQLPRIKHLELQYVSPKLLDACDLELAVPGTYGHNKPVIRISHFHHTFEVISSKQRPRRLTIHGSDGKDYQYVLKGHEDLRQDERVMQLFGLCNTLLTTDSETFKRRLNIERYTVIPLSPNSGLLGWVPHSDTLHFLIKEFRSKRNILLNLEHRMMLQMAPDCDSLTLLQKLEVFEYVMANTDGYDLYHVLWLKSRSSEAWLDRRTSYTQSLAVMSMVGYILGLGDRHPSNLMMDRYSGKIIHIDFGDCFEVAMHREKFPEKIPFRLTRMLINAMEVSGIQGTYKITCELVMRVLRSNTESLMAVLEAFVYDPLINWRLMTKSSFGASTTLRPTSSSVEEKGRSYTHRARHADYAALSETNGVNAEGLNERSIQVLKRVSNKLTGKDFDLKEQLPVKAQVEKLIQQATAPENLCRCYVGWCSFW

These are yes or no findings as the source states them, for the method shown. Binding seen in cells or lysates may run through a third protein. Some binding calls cover weakened binding; strength is not graded here. Tags and fused reporters may be left off the sequences shown.

The record followed here is publication PMC3352084.

The assay addresses FLAG-tagged Tor1 (catalytic subunit of TORC2) (Schizosaccharomyces pombe) (UniProt O14356). As to the kind of experiment: co-IP; anti-FLAG immunoprecipitation from S. pombe extracts, immunoblot with anti-GFP; cells grown vegetatively in EMM2 for 24 h at 26°C, and G0 phase cells after 24 h nitrogen starvation at 26°C; extraction buffer 25 mM HEPES–KOH pH 7.5, 200 mM NaCl, 10% glycerol, 0.1% NP-40, 1 mM PMSF; non-FLAG-tagged strains as control.
As for B1, the binding result is “binds”. As for B2, the binding entry is on record as “binds”. The result for B3 reads “no binding”; that for B4, “binds”. Consider B5, for which the binding result is reported as “no binding”.
